Test results: PubChem BioAssay AID1347417 (National Center for Advancing Translational Sciences (NCATS), 2020)
The whole screen tested about 120,000 compounds, of which about 5,300 (4.4%) were called active. This list was built around the results that the source calls inconclusive (neither active nor inactive); the mix of calls is not that of the screen. Calls come from the whole dose curve; as a rule, active = well fitted inhibition curve with a large enough effect; inconclusive = small, poorly fitted or top-dose-only effect; inactive = no such curve, though single readings can be large or run the other way. Potencies beside an inconclusive call are fits to weak or partial responses and may not hold up.

Test: qHTS Primary assay for Inhibitors of Plasmodium falciparum Dd2 growth in vitro; note: nearly all actives have a fitted effect of over 65% in size;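 for activity, negative = inhibition: plate controls were DMSO vehicle for no effect and reference drug for full effect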
Conditions: P. falciparum Dd2 growth, SYBR Green, 72 h; activity, negative = inhibition: at 28.9 µM (top of the series) unless noted; series mostly up to 28.9 µM
Method in brief: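 Infected erythrocytes (Dd2, 0.3% parasitemia, 2.5% hematocrit final) are added to compound in RPMI-1640/Albumax II medium, grown 72 h at 37C in low oxygen, then lysed with saponin/Triton-X containing SYBR Green and read by fluorescence.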
Potency is the fitted concentration of half-maximal effect; tags give direction and shape of the fitted curve.

SMILES	activity, negative = inhibition	Potency
CC(=O)NCC(=O)NCc1nnc2ccc(-c3ccc(C)c(C)c3)nn12	inactive: -17.8%	–
COc1ccc2c(c1)nc1n2[C@@H](CNC2CCOCC2)COC1	inactive: 2.63% [at 44.1 µM]	–
Cc1ccc(C)c(NC(=O)c2cc3cn(C4CC4)cc3s2)c1	inactive: -1.71%	–
COc1cccc(NC(=O)CSc2nc(-c3ccccc3)nc3c2Cc2cc(Cl)ccc2O3)c1	inactive: 25%	–
COCc1nc(C2CC(=O)N(C3CCCCC3)C2)no1 (stereo not drawn)	inactive: 13.5%	–
COc1cccc(C(=O)NC2CCN(c3cc(-c4ccc(Cl)cc4)[nH]n3)CC2)c1OC	inactive: -8.4%	–
O=C(COc1ccc(F)cc1)NCc1nnc2ccc(-c3ccccc3)nn12	–	inconclusive: 11.2 µM [inhibitor, single point]
O=C(Nc1cccc(Cl)c1)N1CCC2(CC1)SCC(=O)N2Cc1ccco1	inactive: -3.46%	–
O=C1Nc2ccccc2CC12CCCN2CC1CCCCC1 (stereo not drawn)	–	active: 7.08 µM
COc1cccc(N2CCN(C(=O)CCn3ccn4nc5c(c4c3=O)CCCC5)CC2)c1	–	inconclusive: 17.8 µM [inhibitor, single point]
Cn1cc(CN2CCc3ccccc32)ccc1=O	inactive: -6.4%	–
Clc1cccc(Nc2cc3c(cn2)CN(Cc2cccnc2)CCN3)c1	–	inconclusive: 35.5 µM [inhibitor, partial curve, poor fit]
CCCCN(C)CCNC(=O)Cn1ncc2c3ccccc3n(CCC)c2c1=O	–	inconclusive: 3.98 µM [inhibitor, partial curve]
CC(C)Nc1cc(N2CCN(Cc3ccccc3F)C(CCO)C2)ncn1 (stereo not drawn)	–	inconclusive: 12.6 µM [inhibitor, partial curve, poor fit]
CC(C)C[C@H](CO)NC(=O)C[C@@H]1c2nc(NC(=O)CC(C)(C)C)sc2C[C@@H]2[C@](C)(CO)[C@H](O)CC[C@]21C	–	inconclusive: 11.2 µM [inhibitor, single point]
CC1(COc2cccnc2)COc2ccc(C(=O)Nc3ccc4[nH]ccc4c3)cc2N1 (stereo not drawn)	–	inconclusive: 31.6 µM [inhibitor, single point]
CN(C(=O)c1ccc(C(F)(F)F)cc1)C1CCOc2ccccc21 (stereo not drawn)	–	inconclusive: 11.2 µM [inhibitor, partial curve]
CCn1nccc1C(=O)N1CC[C@@H]2CN(Cc3ccccc3)[C@@H]2C1	–	inconclusive: 11.2 µM [inhibitor, single point]
CS(=O)(=O)N1CCc2ccc(S(=O)(=O)NCC3CCCO3)cc2C1 (stereo not drawn)	inactive: 1.92%	–
Cc1ccc(-n2c(C3CCN(C(=O)c4c(F)cccc4Cl)CC3)n[nH]c2=O)cc1	–	inconclusive: 11.2 µM [inhibitor, single point]
COCCNC(=O)C[C@@H]1O[C@H](CNCc2ccc(F)cc2)[C@@H](O)[C@H]1O	inactive: 17.5% [at 44.1 µM]	–

SMILES	activity, negative = inhibition	Potency
COCCNC(=O)c1nc(-c2cccnc2)c2cnccn12	inactive: 0.281% [at 44.1 µM]	–
COc1cccc(S(=O)(=O)N2CCC3(CC2)C(OC)C(=O)N3c2cccc(F)c2)c1 (stereo not drawn)	–	inconclusive: 0.355 µM [inhibitor, full curve, poor fit]
O=C(O)CCC(=O)N1Cc2ccccc2CC2(CCCN(CCc3ccccc3)C2)C1 (stereo not drawn)	inactive: 8.76%	–
CCN(CC)C(=O)c1sc2c(c1C)c(=O)n(-c1ccc(C)c(C)c1)c(=O)n2CC(=O)Nc1ccc(F)cc1	–	inconclusive: 3.98 µM [inhibitor, partial curve, poor fit]
CC(C)(C)C1CCc2c(sc(NC(=O)c3ccccc3F)c2C(=O)N2CCCCC2)C1 (stereo not drawn)	–	inconclusive: 17.8 µM [inhibitor, single point]
CCc1ccc(CN(Cc2ccco2)C(=O)c2cc(-c3ccc(Cl)cc3)on2)cc1	–	inconclusive: 0.0316 µM [inhibitor, full curve, poor fit]
COc1cc(OC)cc(OCC2CN(Cc3cccc(C(F)(F)F)c3)C(=O)c3c(ccnc3-c3ccc(OCC(=O)O)cc3)O2)c1 (stereo not drawn)	inactive: -8.48%	–
c1ccc(-c2ccc3ncc(Nc4ccccn4)n3n2)cc1	–	inconclusive: 8.91 µM [inhibitor, single point]
COc1ccc2c(Sc3ccccc3)c(C(=O)NCCN(C)C)[nH]c2c1	–	inconclusive: 3.98 µM [inhibitor, single point]
CC(C)Cn1c(=O)c2sccc2n2c(CCCC(=O)Nc3ccc(Cl)cc3)nnc12	–	inconclusive: 10 µM [inhibitor, single point]
O=C(c1cc2ccccc2[nH]1)N1CCCC(n2cc(-c3nc(-c4ccccc4)no3)nn2)C1 (stereo not drawn)	–	inconclusive: 0.251 µM [inhibitor, partial curve, poor fit]
O=c1n(-c2ccc(C(F)(F)F)cc2)nc2n1CCN(CC1CCCCC1)C2	–	inconclusive: 14.1 µM [inhibitor, partial curve, poor fit]
CCOc1ccc(NC(=O)CCCN2C(=O)C(c3ccccc3)Oc3cccnc32)cc1 (stereo not drawn)	–	inconclusive: 20 µM [inhibitor, single point]
Cc1cn2nc(C(=O)N3CCC(NC(=O)c4ccc[nH]4)CC3)cc2c(=O)[nH]1	–	inconclusive: 7.94 µM [inhibitor, partial curve, poor fit]
Cc1ccc(Cl)cc1NC(=O)/C(C#N)=C/c1c(C)n(Cc2ccccc2)c2ccccc12	–	inconclusive: 12.6 µM [inhibitor, single point]
CC1CCCCN1C(=O)CSc1nnc(-c2cccc(Cl)c2)o1 (stereo not drawn)	–	inconclusive: 5.62 µM [inhibitor, partial curve, poor fit]
CCCCN(C)C(=O)c1c(C)sc2ccn(CCC)c(=O)c12	–	inconclusive: 14.1 µM [inhibitor, partial curve, poor fit]
CC(C)n1nc(OC(C)(C)C(=O)Nc2ccccc2)c2cc(CN3CCOCC3)ccc21	–	inconclusive: 12.6 µM [inhibitor, single point]
O=C(CCc1ccccc1)N1CCCN(c2cc(-c3ccccc3)[nH]n2)CC1	–	inconclusive: 1.78 µM [inhibitor, partial curve, poor fit]
Cc1cccc(Cn2c(CNS(=O)(=O)c3ccc(Cl)s3)nc3cccnc32)c1	–	inconclusive: 17.8 µM [inhibitor, single point]
COC(=O)c1cccc(NC(=S)N[C@H]2CO[C@H]3[C@@H]2OC[C@H]3OC(=O)Nc2cccc3ccccc23)c1	–	inconclusive: 15.8 µM [inhibitor, single point]

SMILES	activity, negative = inhibition	Potency
Cn1c(=O)oc2cc(S(=O)(=O)NCCC(=O)Nc3ccc(F)c(Cl)c3)ccc21	–	inconclusive: 7.94 µM [inhibitor, partial curve, poor fit]
Cc1cccc(C2N3CC4(C(C)C)CN2CC(C(C)C)(C3)C4=O)c1 (stereo not drawn)	inactive: -19.1%	–
Cc1ccc(-n2ncc(C(=O)NCc3cccs3)c2C2CCN(C(=O)OC(C)(C)C)CC2)cc1C	–	inconclusive: 17.8 µM [inhibitor, single point]
CCOc1ccc(NC(=O)N2CCc3cc(OC)c(OC)cc3C2CNC(=O)C2CC2)cc1 (stereo not drawn)	–	inconclusive: 11.2 µM [inhibitor, single point]
Cc1cc(C)c(Cn2c3ccccc3c3cnn(CC(=O)NCCCc4ccccc4)c(=O)c32)c(C)c1	–	inconclusive: 10 µM [inhibitor, single point]
COc1ccc(CC(=O)NC2CCN(c3cc(-c4ccc(Cl)cc4)[nH]n3)C2)cc1 (stereo not drawn)	–	inconclusive: 10 µM [inhibitor, single point]
C[S+](=O)([O-])N1CCc2nc(-c3ccccc3)nc(-c3ccc(Cl)cc3)c2C1	inactive: -29.8%	–
CCN(Cc1ccc(OC)cc1)c1ccc(-c2nc(-c3ccncc3)no2)cc1[N+](=O)[O-]	–	inconclusive: 3.16 µM [inhibitor, single point]
COc1ccc(CNC(=O)CC[C@]23CC[C@](C)(O)C[C@H]2C(C)(C)C[C@@H]3NC(=O)c2cccc(F)c2)cc1	–	inconclusive: 3.16 µM [inhibitor, partial curve, poor fit]
Cc1ccc(CNC(=O)CC2=C3CCCCC3NC2=O)o1 (stereo not drawn)	inactive: 8.48%	–
O=C1NC2(CCN(Cc3ccc(F)cc3)CC2)COc2ccccc21	–	active: 3.16 µM
CCS(=O)(=O)N1CCC[C@H](n2c(=O)n(C)c3cccnc32)C1	–	inconclusive: 2 µM [inhibitor, single point]
Cc1cccc(N(CC(=O)NC(C)c2ccccc2)S(=O)(=O)c2ccccc2)c1C (stereo not drawn)	–	inconclusive: 8.91 µM [inhibitor, single point]
O=C1CCC2(CCN(C(=O)c3ccccc3)CC2)CN1CC1CCCO1 (stereo not drawn)	inactive: -7.13%	–
Cc1ccccc1[S+](=O)([O-])N1CCC2(CC1)OCCN(Cc1ccccc1)C2=O	–	inconclusive: 10 µM [inhibitor, single point]
COc1ccc2nc([C@H]3CCN(Cc4ccc5c(c4)OCO5)C3)[nH]c2c1	–	inconclusive: 15.8 µM [inhibitor, single point]
O=C(c1ccccc1)N1CCc2cc(CNS(=O)(=O)c3ccccc3Cl)ccc21	–	inconclusive: 17.8 µM [inhibitor, single point]
Cc1cn2nc(C(=O)N3CCC(NC(=O)Cc4ccc(Cl)cc4)CC3)cc2c(=O)[nH]1	–	active: 2.51 µM
CC(C)(C)CN1CCOC[C@H]1c1ncc(-c2ccc(C(F)(F)F)cc2)[nH]1	–	inconclusive: 5.01 µM [inhibitor, full curve, poor fit]
Cc1ccc(CN(Cc2ccco2)c2cnc(S(C)(=O)=O)nc2C(=O)Nc2ccc(Br)cc2)o1	–	inconclusive: 11.2 µM [inhibitor, partial curve, poor fit]
Cc1noc(C2CC3(CCN(C(=O)c4nn(C)c5ccccc45)CC3)CN2C)n1 (stereo not drawn)	–	inconclusive: 17.8 µM [inhibitor, single point]
